Experimental data from PMC4336329 (PLoS ONE, 2015).
Out of some 310,000 compounds screened, about 2,200 (0.71%) showed an effect of 50% or more. The effect is printed as a negative number. The list shows a part of the results.

Each compound was assayed against human ether-à-go-go-related gene (hERG) potassium channel (human, UniProt Q12809) (assay: primary screen, population patch clamp on CHO cells stably expressing hERG).
Sequence of human ether-à-go-go-related gene (hERG) potassium channel (Q12809 whole entry, looked up): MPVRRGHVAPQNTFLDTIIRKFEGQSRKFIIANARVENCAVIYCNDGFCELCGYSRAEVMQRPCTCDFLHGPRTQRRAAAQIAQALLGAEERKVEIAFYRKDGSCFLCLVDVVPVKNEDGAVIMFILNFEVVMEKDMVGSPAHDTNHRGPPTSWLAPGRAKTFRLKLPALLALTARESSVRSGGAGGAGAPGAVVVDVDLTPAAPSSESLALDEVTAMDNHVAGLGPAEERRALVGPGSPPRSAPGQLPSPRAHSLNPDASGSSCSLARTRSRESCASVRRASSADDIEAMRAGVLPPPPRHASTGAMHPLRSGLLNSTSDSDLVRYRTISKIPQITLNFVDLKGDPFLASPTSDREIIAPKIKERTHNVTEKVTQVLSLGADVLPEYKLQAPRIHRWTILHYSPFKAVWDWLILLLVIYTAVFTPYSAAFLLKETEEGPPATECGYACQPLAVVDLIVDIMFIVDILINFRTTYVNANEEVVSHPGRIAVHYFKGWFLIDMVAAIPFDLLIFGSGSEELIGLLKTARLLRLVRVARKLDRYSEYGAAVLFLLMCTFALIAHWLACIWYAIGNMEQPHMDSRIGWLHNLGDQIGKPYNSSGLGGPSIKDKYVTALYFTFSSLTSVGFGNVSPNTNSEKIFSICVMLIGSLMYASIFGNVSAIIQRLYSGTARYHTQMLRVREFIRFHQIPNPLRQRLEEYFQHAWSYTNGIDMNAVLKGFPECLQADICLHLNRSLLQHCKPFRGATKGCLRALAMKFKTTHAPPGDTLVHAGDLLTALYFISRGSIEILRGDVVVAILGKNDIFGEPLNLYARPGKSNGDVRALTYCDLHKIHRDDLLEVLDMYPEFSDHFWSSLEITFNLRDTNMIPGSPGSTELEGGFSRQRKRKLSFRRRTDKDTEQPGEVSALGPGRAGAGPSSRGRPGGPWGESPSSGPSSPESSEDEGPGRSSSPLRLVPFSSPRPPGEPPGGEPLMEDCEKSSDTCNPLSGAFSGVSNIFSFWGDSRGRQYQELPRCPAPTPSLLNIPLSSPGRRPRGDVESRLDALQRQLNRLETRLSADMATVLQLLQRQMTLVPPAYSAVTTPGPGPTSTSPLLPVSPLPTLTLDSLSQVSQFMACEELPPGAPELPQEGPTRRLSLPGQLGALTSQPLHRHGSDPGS

| Compound | hERG current change (%, negative = inhibition) at 1uM [%] |
| --- | --- |
| COc1ccc(C/C(C)=N/Nc2nc(C)cc(=O)[nH]2)cc1 | 13.4 |
| N#Cc1ccc(C23CC4(C2)[C@H](CN(Cc2cccnc2)[C@@H]4c2ccccc2)C3c2ccccc2)cc1 (stereo partly drawn) | 8.25 |
| C=CCn1c(SCC(N)=O)nc2nc3c(cc2c1=O)COC(C)(C)C3 | 7.81 |
| CCOC(=O)c1c(C)[nH]c(C(=O)COC(=O)c2cnccn2)c1C | 8.48 |
| O=C(O)C1CCN(C(=O)OCc2ccccc2)CC1 | 16.7 |
| COc1cccc(CNC(=O)C2CCN(S(=O)(=O)N3CCC(C)CC3)CC2)c1 | 12 |
| Cc1ccc(C(=O)NCC(C)(C)O)cc1 | 13.3 |
| CC(=O)c1c(C)[nH]c(C(=O)OCC(=O)N2CCc3ccccc32)c1C | 10.5 |
| Cc1ccc(NC(=S)N(C)C)cc1C | 2.58 |
| CC(=O)c1cccc(NCC(=O)Nc2cc(S(=O)(=O)N3CCCCC3)ccc2C)c1 | 7.1 |
| COc1cccc(/C=C2\SC(=S)N(CCC(=O)N3CCCCC3CCO)C2=O)c1 (stereo not drawn) | 9.11 |
| O=C1NC(NS(=O)(=O)c2ccccc2)(C(F)(F)F)C(=O)N1CCc1ccccc1 (stereo not drawn) | 15 |
| O=C(NC1C2CC3CC(C2)CC1C3)C1CC1 (stereo not drawn) | 2.6 |
| CSc1ccc(/C=C(/NC(=O)c2ccco2)C(=O)NCc2ccco2)cc1 | 6.83 |
| CCc1ccc(S(=O)(=O)NCCc2csc(C)n2)s1 | 19.6 |
| Cc1ccc(N2C(=O)CC(Cc3cccc(C)c3)C2=O)cc1 (stereo not drawn) | 16.7 |
| Cn1c(O)c(C=NCCN2CCNCC2)c(=O)[nH]c1=O | 19.4 |
| COc1ccc(CN2C(=O)C(O)(CC(=O)c3c(C)n[nH]c3C)c3ccccc32)cc1OC (stereo not drawn) | 13.4 |
| COc1cccc2sc(N(CCCN(C)C)C(=O)c3ccc(S(=O)(=O)N4CCCc5ccccc54)cc3)nc12.Cl | -3.09 |
| CC(=O)c1c(C)nc2ccc([N+](=O)[O-])cc2c1-c1ccccc1 | 10.7 |
| COc1ccc(N2C(=O)C3CCCN3C2c2ccc(C)cc2)cc1Cl (stereo not drawn) | 8.9 |
| Cn1c(=O)cc(C(=O)N/N=C/c2ccc(Cl)cc2)[nH]c1=O | 13.8 |
| CC1=NN(C(N)=S)C(=O)C1N=Nc1cccc(C(=O)O)c1 (stereo not drawn) | 16.7 |

| Compound | hERG current change (%, negative = inhibition) at 1uM [%] |
| --- | --- |
| O=C(Cn1nnc2ccccc21)c1cccc([N+](=O)[O-])c1 | 18.5 |
| CCCCCCCC1(C)NC(=O)N(CC(=O)Nc2cc(C)on2)C1=O (stereo not drawn) | -11.7 |
| COc1cccc2cc(-c3nc4ccccc4o3)c(=O)oc12 | 12.8 |
| COC(=O)c1ccccc1NC(=O)CSc1nc(O)c(-c2ccccc2)c(=O)[nH]1 | -5.57 |
| CC(C)OCCCNCC(O)c1ccccc1 (stereo not drawn) | 5.47 |
| CCN(CC(=O)Nc1cc(S(=O)(=O)N2CCOCC2)ccc1Cl)Cc1ccccc1 | 10.7 |
| COc1ccc(-c2noc(CNS(=O)(=O)c3ccc(NC(C)=O)cc3)n2)cc1OC | 12.4 |
| CCNc1c(NC(=O)c2cccs2)c(=O)oc2ccccc12 | 12.7 |
| CCOC(=O)C(C(=O)OCC)C1OC(=O)c2cc3c(cc21)C(=O)OC3C(C(=O)OCC)C(=O)OCC (stereo not drawn) | 11.9 |
| CCCCN(CC)C(=O)c1cc2cc3ccc(OC)cc3nc2o1 | -1.08 |
| CCC(=O)N(C)C(c1ccccc1Cl)c1nnnn1-c1c(C)cccc1C (stereo not drawn) | 15.6 |
| COC(=O)CCCNC(=O)c1ccc(S(=O)(=O)NCc2ccco2)cc1 | 10.7 |
| CC1CCCCN1CC(O)COCCC12CC3CC(CC(C3)C1)C2.Cl (stereo not drawn) | -24.9 |
| C=CCC1C=C(Cc2ccccc2)CC(CC=C)N1.Cl (stereo not drawn) | -5.71 |
| CCn1c(C)nc2cc(C(=O)N=Nc3c(O)[nH]c4ccccc34)ccc21 | 0.2 |
| Cc1ccc(S(=O)(=O)N2CCOCC2)cc1NC(=O)CSc1n[nH]c(N)n1 | -1.25 |
| Cc1cc(SCC(=O)c2ccccc2)n2nc(C)nc2n1 | 10.4 |
| Cc1ccccc1C(=O)NC(Oc1ccccc1)C(Cl)(Cl)Cl (stereo not drawn) | -5.34 |
| COc1ccc(NCC(=O)N/N=C/C2CCCCC2)cc1 | 7.51 |
| C=CCn1c(Sc2ncc([N+](=O)[O-])s2)n[nH]c1=O | 15.4 |
| Cc1ccccc1NC(=S)N(CCCN1CCOCC1)Cc1cccs1 | -21.5 |
| CCN(CC)C(=O)C1CCCN(C/C(C)=C/c2ccccc2)C1 (stereo not drawn) | -1.52 |
